Measurements published in the supplement of paper PMC3334620.
The full ranking holds about 33,000 sequences; the median of “E-score (-0.5 to 0.5)” is about -0.041, and the highest 2% start at about 0.37. The list shows a part of the results.

target: T1, Ecm22 (UniProt Q05958); assay: PBM E-score (8-mer binding enrichment) (E-score (-0.5 to 0.5)); higher = stronger / more preferred TF binding; most listed sequences are background and not binding sites; details: protein concentration: 200 nM; construct: GST-full length
T1 sequence: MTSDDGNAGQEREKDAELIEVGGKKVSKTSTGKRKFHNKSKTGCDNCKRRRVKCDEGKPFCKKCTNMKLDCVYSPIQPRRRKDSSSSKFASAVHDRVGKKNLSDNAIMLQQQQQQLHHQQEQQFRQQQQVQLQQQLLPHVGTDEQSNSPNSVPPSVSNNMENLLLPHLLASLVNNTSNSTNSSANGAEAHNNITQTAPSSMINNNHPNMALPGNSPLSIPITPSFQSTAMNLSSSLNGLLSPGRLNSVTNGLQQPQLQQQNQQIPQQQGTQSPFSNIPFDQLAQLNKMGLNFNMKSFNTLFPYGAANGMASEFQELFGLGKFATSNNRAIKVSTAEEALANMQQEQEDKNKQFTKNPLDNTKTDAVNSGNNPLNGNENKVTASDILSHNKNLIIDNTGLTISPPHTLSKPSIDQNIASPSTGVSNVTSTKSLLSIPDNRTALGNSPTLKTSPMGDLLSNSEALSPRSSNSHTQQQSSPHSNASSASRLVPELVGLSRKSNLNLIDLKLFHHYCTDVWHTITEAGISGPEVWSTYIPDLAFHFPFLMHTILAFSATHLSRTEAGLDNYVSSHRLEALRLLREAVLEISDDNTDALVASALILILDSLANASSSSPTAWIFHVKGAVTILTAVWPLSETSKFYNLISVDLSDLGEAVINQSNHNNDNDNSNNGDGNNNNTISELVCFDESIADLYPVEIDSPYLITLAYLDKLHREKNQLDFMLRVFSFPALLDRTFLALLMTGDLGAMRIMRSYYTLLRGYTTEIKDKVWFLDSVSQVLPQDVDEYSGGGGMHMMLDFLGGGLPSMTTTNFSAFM
How it was run: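 Bound GST-tagged yeast transcription factors, applied at about 100-200 nM to double-stranded universal all-10-mer Agilent arrays, were detected with fluorescent anti-GST. Scans were normalised with masliner. A modified Wilcoxon-Mann-Whitney statistic, the E-score, was assigned to each ungapped eight-base word pooled with its reverse complement by the Universal PBM Analysis Suite.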

Row | Sequence | PBM E-score
1 | AGCATACG | 0.294
2 | CTTAGGTC | 0.0126
3 | CCTATAGC | -0.248
4 | ACGTCATA | 0.0355
5 | GCTATTAC | 0.0971
6 | GGGAATAC | 0.154
7 | GGTCAGTA | -0.0823
8 | GGATGCCA | -0.257
9 | TAGCACTA | -0.229
10 | CCACTTGA | -0.227
11 | ACAGTCTA | -0.00051
12 | AGGTAAAT | -0.0314
13 | CGGGGCTC | 0.0952
14 | GGTGATAA | -0.0729
15 | ACCAACCT | -0.108
16 | ATCCCCCG | 0.0316
17 | CTAAACAA | -0.262
18 | CGTTAATC | 0.323
19 | CGAGGGGA | 0.327
20 | GGAGCAAC | -0.0171
21 | ACAGCGCT | 0.0457
22 | CATCACCC | -0.22
23 | AAGTTGAC | 0.0165
24 | CAAAAGCA | -0.0601
25 | AGCGAAGC | 0.138

Row | Sequence | PBM E-score
26 | GTGAAAAC | 0.00576
27 | GAACCGAA | 0.276
28 | AAATCCGG | 0.104
29 | GGGAAACC | -0.0175
30 | TTAATCAA | 0.0361
31 | CCGAGACC | 0.0754
32 | GTACTATA | 0.175
33 | CAGGAAAC | 0.0585
34 | AACTTACG | 0.173
35 | AGAATCAT | -0.0857
36 | CTCGAGCA | -0.0461
37 | ACAAGTGC | 0.0148
38 | CGGCCTTA | -0.105
39 | CTTCATCC | -0.178
40 | AACACCCT | -0.176
41 | ACAGATGA | -0.0756
42 | ACGGGGAA | 0.249
43 | AAACCAGA | -0.0849
44 | AGCGATGC | 0.212
45 | GCGTGGCC | -0.0838
46 | ATTGGTAA | -0.0838
47 | GCAAACTA | -0.0308
48 | CAGAAACA | -0.0444
49 | AATCCGAT | 0.142
50 | GGACTGAA | -0.141

Row | Sequence | PBM E-score
51 | CCAGTGTC | -0.0884
52 | ACGGAATG | 0.0826
53 | AGCGGTTC | 0.0806
54 | ACACCTAA | 0.059
55 | TCATAAAA | -0.0555
56 | AAGCCCTC | -0.0697
57 | CTAAATGA | -0.165
58 | CCGCGGGC | -0.2
59 | ATCAAGCC | 0.0241
60 | AAAGTGGT | -0.0949
61 | ACACATAC | 0.0488
62 | CCTAACCG | 0.0543
63 | ATCTCTGA | -0.207
64 | AAACCGAC | 0.282
65 | GCTCTTCC | -0.0296
66 | CAAAACGG | 0.0645
67 | ACTTGAAG | -0.12
68 | ACACTGAG | -0.0764
69 | CGTGCCGC | 0.176
70 | ATTCATCG | 0.0765
71 | ACTATATA | 0.16
72 | CCCGACCC | 0.092
73 | ACCGACAG | 0.156
74 | ACCGAGTC | 0.0171
75 | CTGATAAA | -0.0416

Row | Sequence | PBM E-score
76 | AGGCCCAG | -0.302
77 | GATAGCCA | -0.13
78 | CATGCTAC | -0.225
79 | GGCGGCCA | -0.241
80 | ATTTACGC | 0.0401
81 | ATATTCGG | 0.0737
82 | TATACTAA | 0.184
83 | AGTTGAGA | -0.0828
84 | GCTTGCTA | -0.0965
85 | CGTCAGTC | -0.0862
86 | GGCGCCAA | -0.0449
87 | CGCACACA | -0.00717
88 | AAGTTTCA | 0.136
89 | CCCGCGGG | -0.195
90 | ATCGTCTG | 0.128
91 | GGACCGTA | 0.233
92 | ACGTGCCA | -0.256
93 | GCACAGAA | -0.068
94 | ACTGGGAC | -0.133
95 | AGACGATC | -0.0754
96 | CATACCAA | -0.12
97 | CTGCGTTC | 0.213
98 | CCGGAGTA | 0.118
99 | GCACAGCA | 0.0196
100 | AACAACGT | 0.054

Row | Sequence | PBM E-score
101 | ATATACAT | 0.0421
102 | CCTCCAGC | -0.0677
103 | GAAACTAC | -0.0387
104 | CTTGTTCC | 0.0902
105 | CATTGTAG | -0.0693
106 | GAACACTA | -0.126
107 | ATTGTTTA | -0.0806
108 | ACGACCTC | 0.337
109 | AGGTATTG | -0.0537
110 | ATAGTTCG | 0.0449
111 | CTGTGAAA | 0.112
112 | ACGCACGA | 0.229
113 | CAGGCTAG | -0.246
114 | CGTGTCAG | 0.0365
115 | AAATTCCT | -0.176
116 | ACAGTCAA | 0.0316
117 | AACACAAA | 0.146
118 | TCAAAGCA | -0.0829
119 | CATTGTCG | 0.0896
120 | ACGTTACT | 0.0882
121 | AGAGTAAA | -0.0459
122 | GCGAGCTA | 0.248
123 | ATAGTAAC | -0.0177
124 | GGACGCAA | -0.0673
125 | ATGCGTCC | -0.169

Row | Sequence | PBM E-score
126 | CGTGCCCC | -0.104
127 | CGCTACGA | 0.456
128 | CTGTGTGC | -0.142
129 | CACAGGAG | 0.0417
130 | CTCGAACC | 0.115
131 | TAACAGTA | 0.11
132 | ATCCAAGA | -0.0871
133 | CTCTGATC | -0.128
134 | CATGCTGG | -0.278
135 | ACTTCGAC | 0.0621
136 | CGCCAAAA | 0.0978
137 | ACGACAGA | 0.341
138 | GACGAGCA | 0.0907
139 | ACTCCGCG | 0.107
140 | GTGGAATA | 0.0081
141 | TGAGATAA | -0.0236
142 | TATTCCAA | -0.0763
143 | GTGGCGTA | 0.042
144 | TCGACCAA | -0.159
145 | GCGTAGAC | -0.064
146 | CTGTTACC | 0.0707
147 | ACCGGCGC | 0.0279
148 | ATGTTGTG | 0.0154
149 | AGGAACTG | -0.231
150 | CATTCTTA | -0.183

Row | Sequence | PBM E-score
151 | ACCGCCAA | -0.136
152 | GGCAGCCA | -0.374
153 | CCTTCTTA | -0.0722
154 | CAGATCCC | 0.0114
155 | CACAACCG | 0.182
156 | ATAAGATC | 0.0584
157 | ATGTGGAC | -0.148
158 | CTACTTGA | -0.208
159 | GCTCTAGA | -0.226
160 | ATGGACGA | -0.00268
161 | ACCAAAAC | -0.0198
162 | ATGTCTCC | -0.0375
163 | ACCGGGAG | -0.0947
164 | TAACACTA | 0.164
165 | GGACCGGA | 0.166
166 | AGGACCGG | -0.196
167 | GAATATCA | 0.0564
168 | CTGGACGC | -0.26
169 | CGTGAAGA | -0.0551
170 | AGGTCATA | 0.0107
171 | CAGTCGAG | -0.146
172 | GGACTAAC | -0.155
